Assay results taken from PMC9911399, “Two distinct binding modes provide the RNA-binding protein RbFox with extraordinary sequence specificity”.
Residue numbers refer to the chain shown, from its start. The list shows a part of the results.

T1: RBFOX1 RRM (Homo sapiens, UniProt Q9NWB1 109-208)
T1 sequence: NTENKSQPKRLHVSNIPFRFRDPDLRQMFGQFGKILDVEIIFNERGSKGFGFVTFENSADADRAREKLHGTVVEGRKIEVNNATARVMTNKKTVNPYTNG

B1: CAUUAGU (DNA:RNA)
RNA: GGGAGACCGGAAUUCAGAUUGUCCCAUUAGUUUAAAUCCCGUCGUAGCCACCA
DNA 1: CAATCTGAATTCCGGTCTCCC
DNA 2: TGGTGGCTACGACGGGATT
B2: AGCAUCG (DNA:RNA)
RNA: GGGAGACCGGAAUUCAGAUUGUCCAGCAUCGUUAAAUCCCGUCGUAGCCACCA
DNA 1: CAATCTGAATTCCGGTCTCCC
DNA 2: TGGTGGCTACGACGGGATT
B3: UACAUAU (DNA:RNA)
RNA: B2 RNA with A25U, G26A, C30A, G31U
DNA 1: CAATCTGAATTCCGGTCTCCC
DNA 2: TGGTGGCTACGACGGGATT
B4: UUGGGUA (DNA:RNA)
RNA: GGGAGACCGGAAUUCAGAUUGUCCUUGGGUAUUAAAUCCCGUCGUAGCCACCA
DNA 1: CAATCTGAATTCCGGTCTCCC
DNA 2: TGGTGGCTACGACGGGATT
B5: ACCAUCG (DNA:RNA)
RNA: B2 RNA with G26C
DNA 1: CAATCTGAATTCCGGTCTCCC
DNA 2: TGGTGGCTACGACGGGATT
B6: UUAGGAC (DNA:RNA)
RNA: B4 RNA with G27A, U30A, A31C
DNA 1: CAATCTGAATTCCGGTCTCCC
DNA 2: TGGTGGCTACGACGGGATT
B7: CCGGGAC (DNA:RNA)
RNA: B4 RNA with U25C, U26C, U30A, A31C
DNA 1: CAATCTGAATTCCGGTCTCCC
DNA 2: TGGTGGCTACGACGGGATT
B8: ACAUCCG (DNA:RNA)
RNA: B2 RNA with G26C, C27A, A28U, U29C
DNA 1: CAATCTGAATTCCGGTCTCCC
DNA 2: TGGTGGCTACGACGGGATT
B9: AUGCUCU (DNA:RNA)
RNA: B2 RNA with G26U, C27G, A28C, G31U
DNA 1: CAATCTGAATTCCGGTCTCCC
DNA 2: TGGTGGCTACGACGGGATT

biological target: T1, RBFOX1 RRM; experiment: EMSA; HiTS-Eq, 1 nM pool, 10 min; buffer printed only for the single-RNA assays: 10 mM Tris pH 7.5, 150 mM NaCl, 3.4 mM EDTA, 0.001% NP-40, 30 C; settings: tags: His6 N-terminal (pET28a); label: 5' 32P
How it was run: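 A pool of RNA with 7 randomized nucleotides, 5′-radiolabelled and with DNA-annealed flanks, was equilibrated at 1 nM for 10 min in 50 µL with purified RbFox RRM, wild type or mutant, across increasing protein concentrations. Free RNA was separated by 8% native PAGE, excised, reverse-transcribed, barcoded by PCR and sequenced. Relative association constants were obtained from read-count changes of each RNA species versus the control reaction and normalised to the cognate motif.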

| Binder | binding signal |
| --- | --- |
| B1 | 0.0065 KA relative to UGCAUGU |
| B2 | 0.0146 KA relative to UGCAUGU |
| B3 | 0.00103 KA relative to UGCAUGU |
| B4 | 0.0202 KA relative to UGCAUGU |
| B5 | 0.00248 KA relative to UGCAUGU |
| B6 | 0.00575 KA relative to UGCAUGU |
| B7 | 0.00692 KA relative to UGCAUGU |
| B8 | 0.00179 KA relative to UGCAUGU |
| B9 | 0.0104 KA relative to UGCAUGU |
